# Reference: PubChem BioAssay AID463173 (ICCB-Longwood Screening Facility, Harvard Medical School, 2010)
# Screen size: about 52,000 compounds; about 1,700 (3.3%) were called active. Rule as the data show it: active = survival mostly below about 52% (no sharp cut-off); inactive = mostly above about 56%. Some of the results follow.
# Test system: Wild type
# Test: growth inhibition of S. aureus wild type versus tarO mutant, primary screen, teichoic acid synthesis inhibitors, RN4220, OD600 (AID 463173)
# Conditions: S. aureus RN4220 wild type/DeltatarO growth, OD600, 18 h, hits give low values, screened at 18.75 µg/mL (by protocol)
row,SMILES,survival
1,Cc1nnc2c3ccccc3nc(N3CCN(c4ccccc4)CC3)n12,inactive: 91%
2,CCOC(=O)C1CCCN(C(=O)c2ccccc2NC(=O)c2nsc3ccccc23)C1 (configuration not stated),inactive: 134%
3,CCOc1ccc(C2CC(=O)c3c([nH]c(C(=O)OCCOc4ccccc4)c3C)C2)cc1 (configuration not stated),inactive: 85%
4,CN(C)N1C(=O)CC(N2CCCC2)C1=O (configuration not stated),inactive: 101%
5,O=C(c1ccc2c(c1)N(Cc1cccc(Cl)c1)C(=O)c1ccccc1S2(=O)=O)N1CCCC1,inactive: 82%
6,Cc1ccccc1Cn1nnc2c(=O)[nH]c(C3CCCN(C(=O)c4ccc(C(C)(C)C)cc4)C3)nc21 (configuration not stated),inactive: 16%
7,N#Cc1c(-c2ccccc2)cc(-c2ccccc2)nc1SCC(O)CS(=O)(=O)Cc1ccccc1 (configuration not stated),inactive: 81%
8,O=C(Cn1cc(SCc2ccc(F)cc2)c2ccccc21)N1CCCCCC1,inactive: 82%
9,O=C(CCc1ccccc1)N(Cc1cccnc1)c1nc2ccc(F)cc2s1,inactive: 71%
10,CCOCCCNC(=O)C1CCCN(c2ncnc3onc(C)c23)C1 (configuration not stated),inactive: 54%
11,CCOc1ccc(NC(=O)c2cnn(-c3ccccc3)c2-n2cccc2)cc1,inactive: 61%
12,CCN(CC)C(=O)CSc1nc2c(c(=O)n(C)c(=O)n2C)n1Cc1ccccc1,inactive: 75%
13,O=C(CN1CCOCC1)NN=C1CCCCC1,inactive: 93%
14,Cc1ccccc1C(=O)Nc1cccc(OCc2cc(=O)n3c4c(sc3n2)CCCC4)c1,inactive: 126%
15,COc1ccc2c(c1)c1c(c(=O)n(-c3ccc(C)cc3)c(=O)n1CC(=O)c1ccc(Cl)cc1)n2C,inactive: 68%
16,COc1ccc(NC(=O)Cn2cc(S(=O)(=O)N3CCC(C)CC3)c3ccccc3c2=O)cc1Cl,inactive: 78%
17,CN(C)C(=O)CSc1n[nH]c(-c2ccccc2)n1,inactive: 120%
18,Cc1ccc(C)c(CNS(=O)(=O)c2ccc3c(c2)C(C)(C)C(=O)N3C)c1,inactive: 69%
19,CC1CCN(S(=O)(=O)c2ccc3c(c2)N(CC(=O)NCCN(C)C)C(=O)CO3)CC1,inactive: 76%

row,SMILES,survival
1,COc1ccc2c(CNCCc3ccccc3C)c(C(=O)O)n(Cc3ccccc3C)c2c1,inactive: 92%
2,COc1cccc(CNS(=O)(=O)c2ccc3[nH]c4c(c3c2)CCCCC4)c1,inactive: 82%
3,Cc1ccc(C)c(N2CCN(C(=O)c3ccc(-c4nc(COc5ccccc5)c(C)o4)cc3)CC2)c1,inactive: 117%
4,CCOc1ccc(NC(=O)c2ccc3[nH]c(C)cc(=O)c3c2)cc1,inactive: 87%
5,CC(=O)N1CCc2c(sc3c2c(=O)n(-c2cccc(Cl)c2C)c(=O)n3Cc2ccccc2C)C1,inactive: 79%
6,CCOC(=O)/C(C#N)=C\c1ccc(-c2cccc(C(F)(F)F)c2)o1,inactive: 86%
7,O=C(CCCCn1c(=O)[nH]c2ccsc2c1=O)N1CCN(c2cccc(C(F)(F)F)c2)CC1,inactive: 57%
8,Cc1ccc2c(c1)cc1c(=O)n(CC(=O)N(C)c3ccccc3)nc(C)n12,inactive: 115%
9,COc1ccc(CN(Cc2ccco2)C(=O)COc2ccc(Cl)cc2C)cc1,inactive: 83%
10,CCOC(=O)c1c(S(=O)(=O)N2CCCC(C(=O)NCc3ccc(F)cc3)C2)c(C)n(CC)c1C (configuration not stated),inactive: 93%
11,COc1cccc(-c2nnc(SCC(=O)N3CCCCC3)o2)c1,inactive: 111%
12,COC(=O)C1C2C=CC3(CN(Cc4ccco4)C(=O)C13)O2 (configuration not stated),inactive: 102%
13,O=C(OCc1cc(=O)n2nc(-c3cccs3)sc2n1)c1cccc(Cl)c1,inactive: 53%
14,COc1ccc(CNC(=O)C2CCCN(S(=O)(=O)N(C)c3ccc(F)cc3)C2)cc1OC (configuration not stated),inactive: 86%
15,O=C(NC1CCCCC1)NC1CCN(Cc2nnnn2Cc2ccc(F)cc2)CC1,inactive: 118%
16,Cc1ccc(C)c(Cn2c(=O)n(CC3CCC(C(=O)N4CCOCC4)CC3)c(=O)c3sccc32)c1 (configuration not stated),inactive: 69%
17,CCOC(=O)c1cccc(NC(=O)c2ccc3c(c2)nnn3CC)c1,inactive: 87%
18,Cc1ccc(NC(=O)Cn2c(=O)c(C(F)(F)F)nc3ccccc32)cc1C,inactive: 47%
19,CCOC(=O)c1ccccc1NC(=O)Cn1nnc2sc3c(c2c1=O)CCCC3,inactive: 84%

row,SMILES,survival
1,Cc1ccc(C(C(=O)NC2CCCCC2)N(C)Cc2ccccc2)cc1 (configuration not stated),active: -1%
2,CCc1cccc(CC)c1NC(=O)CCS(=O)(=O)c1ccc(Br)s1,inactive: 101%
3,CC1(C)Cc2nc3sc(C(=O)NN)c(N)c3cc2CO1,inactive: 107%
4,Cc1oc2c(c1C(=O)Nc1ccc(F)c(F)c1)C1=NCCN1C=N2,inactive: 78%
5,O=C(CCSc1nnc(-c2ccncc2)o1)Nc1ccccc1,inactive: 108%
6,CCOc1ccc(NC(=O)c2oc3ccccc3c2NC(=O)C2CCCCC2)cc1,inactive: 84%
7,COc1ccc2[nH]cc(NC(=O)N3CCN(C)CC3)c(=O)c2c1,inactive: 114%
8,CCOC(=O)c1ccccc1Nc1nc2ccc(C)cc2n2nnnc12,inactive: 90%
9,Cc1cccc(C)c1NC(=O)c1nc(S(C)(=O)=O)ncc1N(Cc1ccc(C(C)(C)C)cc1)Cc1ccco1,inactive: 85%
10,Cn1cc(-c2cc3n(n2)CCC(=O)N3CCCC(=O)NCc2ccc(F)cc2)c2ccccc21,inactive: 78%
11,CCN1CCN(Cc2c(O)ccc3oc(C)c(C(=O)Nc4ccc(OC)cc4)c23)CC1,inactive: 86%
12,FC(F)(F)Sc1ccc2noc(-c3ccccc3)c2c1,inactive: 115%
13,CC(C)CNC(=O)N1CCN(S(=O)(=O)c2ccc3c(ccn3C)c2)CC1,inactive: 73%
14,Cc1ccc(NC(=O)CSc2nc3nc(C)c(Cc4ccccc4)c(C)n3n2)cc1,inactive: 47%
15,Cc1ccc2oc3c(c(=O)c2c1)C(c1ccccc1F)N(c1ccccn1)C3=O (configuration not stated),inactive: 67%
16,CC(=O)Nc1ccc(-c2csc(N)n2)cc1,inactive: 109%
17,COc1ccc(-c2cc(C(F)(F)F)n3nc(C(=O)Nc4cc(C(F)(F)F)ccc4Cl)cc3n2)cc1OC,inactive: 145%
18,COc1ccc(Cn2ccnc2SCC(=O)Nc2ccc3c(c2)OCO3)cc1,inactive: 69%
19,Cc1ccc(NC(=O)N2CC3CCCN3c3ccccc32)cc1C (configuration not stated),active: -2%
